{"source": "PubChem BioAssay AID1768", "about": "(National Center for Advancing Translational Sciences (NCATS), 2009)", "note": "Several values for one entry are separate records, joined by “and”; a condition that tells them apart may be missing. Equal values may be shown once. Screen size: about 270,000 compounds; about 620 (0.23%) were called active. The inconclusive results got no clear call from the source; some entries with a clear call stand among them for comparison. Calls come from the whole dose curve; as a rule, active = well fitted inhibition curve with a large enough effect in the polarisation, with a control signal flat (not every such curve was filed as active); inconclusive = small, poorly fitted or top-dose-only effect, or effect the other way, or a change in a side signal; inactive = no such curve, though single readings can be large or run the other way; the % refers to the polarisation. Potencies of inconclusive entries are doubtful fits and often do not repeat. A note “side channel” means that the fit belongs to a control or component signal, not to the main read-out. Potency is the fitted concentration of half-maximal effect; tags give direction and shape of the fitted curve or compound fluorescence and quenching."}
{"target": "Menin (Homo sapiens) (UniProt O00255)", "sequence (O00255 whole entry, looked up)": "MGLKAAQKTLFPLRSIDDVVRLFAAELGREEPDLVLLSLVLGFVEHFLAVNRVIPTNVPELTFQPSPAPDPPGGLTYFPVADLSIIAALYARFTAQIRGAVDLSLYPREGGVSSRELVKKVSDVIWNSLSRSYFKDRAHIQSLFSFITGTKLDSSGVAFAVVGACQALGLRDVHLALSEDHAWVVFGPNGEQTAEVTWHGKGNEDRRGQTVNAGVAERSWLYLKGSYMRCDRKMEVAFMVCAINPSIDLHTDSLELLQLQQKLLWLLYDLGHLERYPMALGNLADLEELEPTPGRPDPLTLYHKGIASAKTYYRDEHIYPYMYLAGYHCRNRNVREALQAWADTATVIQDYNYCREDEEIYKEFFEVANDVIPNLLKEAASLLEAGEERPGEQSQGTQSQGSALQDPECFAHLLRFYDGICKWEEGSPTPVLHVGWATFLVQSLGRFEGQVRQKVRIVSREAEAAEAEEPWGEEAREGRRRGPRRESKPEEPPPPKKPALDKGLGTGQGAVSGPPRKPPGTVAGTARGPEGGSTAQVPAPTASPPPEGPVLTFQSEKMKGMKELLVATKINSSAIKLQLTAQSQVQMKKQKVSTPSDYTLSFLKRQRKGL", "assay": "qHTS Assay for Inhibitors Targeting the Menin-MLL Interaction in MLL Related Leukemias: Competition With Texas Red Labeled MLL-derived Mutant Peptide", "settings": "fluorescence polarization; series mostly up to 61.6 µM"}
{"smiles": "O=c1oc2cc(O)ccc2c2oc3cc(O)ccc3c12", "Potency": "inactive and inconclusive: 15.8 µM [quencher, side channel, partial curve]"}
{"smiles": "S=c1[nH]nc(-c2ccccc2Cl)n1CC1CCCO1", "note": "(stereo unspecified)", "Potency": "inconclusive: 39.8 µM [inhibitor, single point]"}
{"smiles": "Cc1cc(S(=O)(=O)N2CCN(c3c(C)cccc3C)CC2)ccc1F", "Potency": "inconclusive: 31.6 µM [inhibitor, single point]"}
{"smiles": "Cc1cc(S(=O)(=O)N2CC(=O)N(CCc3ccccc3)C(=O)C2)ccc1F", "Potency": "inconclusive: 6.31 µM [inhibitor, single point]"}
{"smiles": "Fc1ccc(Nc2ncnc3ccc(-c4ccoc4)cc23)cc1", "Potency": "inconclusive: 39.8 µM [quencher, side channel, single point]"}
{"smiles": "Cc1[nH]n(-c2ccccc2)c(=O)c1C=Nc1ccc2[nH]c(=O)[nH]c2c1", "Potency": "inactive"}
{"smiles": "Cc1ccc(N2CCN(S(=O)(=O)c3ccc(C)cc3)CC2)cc1", "Potency": "inconclusive: 39.8 µM [inhibitor, single point]"}
{"smiles": "COc1cc([N+](=O)[O-])ccc1NC(=O)CSc1ccccn1", "Potency": "inconclusive: 20 µM [quencher, side channel, single point]"}
{"smiles": "COc1ccc(Cn2nc(-c3ccccc3)c(N3CCCCC3)cc2=O)cc1", "Potency": "inconclusive: 2.51 µM [fluorescent, side channel, full curve]"}
{"smiles": "CC(C)(C)OC(=O)N1CCC(c2c(C(=O)O)cnn2-c2ccc(Cl)cc2)CC1", "Potency": "inconclusive: 20 µM [quencher, side channel, single point]"}
{"smiles": "COc1ccc(S(=O)(=O)N2CCC(C(=O)N3CCc4ccccc4C3)CC2)cc1C", "Potency": "inconclusive: 3.98 µM [fluorescent, side channel, full curve, poor fit]"}
{"smiles": "CC1=C(C(=O)OCCOc2ccccc2)C(c2ccsc2)NC(=O)N1C", "note": "(stereo unspecified)", "Potency": "inconclusive: 12.6 µM [fluorescent, side channel, partial curve]"}
{"smiles": "O=S(=O)(c1ccc2nc(-c3ccco3)c(-c3ccco3)nc2c1)N1CCOCC1", "Potency": "inconclusive: 25.1 µM [quencher, side channel, partial curve]"}
{"smiles": "Cc1ccc2nc(NC(=O)/C=C/c3ccc4c(c3)OCO4)sc2c1", "Potency": "inconclusive: 7.94 µM [quencher, side channel, full curve, poor fit]"}
{"smiles": "CC(=O)Nc1ccc(SCC(=O)c2cc(C)n(Cc3cccs3)c2C)cc1", "Potency": "inconclusive: 31.6 µM [quencher, side channel, single point]"}
{"smiles": "COc1ccc(C2/C=C\\CNCC(=O)N2Cc2ccc(F)cc2)cc1", "note": "(stereo unspecified)", "Potency": "inconclusive: 5.62 µM [fluorescent, side channel, partial curve]"}
{"smiles": "N=c1oc2ccc3ccccc3c2cc1C(N)=S", "Potency": "inconclusive: 31.6 µM [quencher, single point]"}
{"smiles": "Cc1cccc(N2CCN(C(=O)C(Cc3ccccc3)NC(N)=O)CC2)c1C", "note": "(stereo unspecified)", "Potency": "inconclusive: 20 µM [fluorescent, side channel, single point]"}
{"smiles": "COc1ccc(C(=O)Nc2ccc(NC(=O)c3ccccn3)cn2)cc1", "Potency": "inconclusive: 35.5 µM [inhibitor, single point]"}
{"smiles": "CC(=O)c1ccc(NC(=O)Nc2ccc(Br)cc2C)cc1", "Potency": "inconclusive: 14.1 µM [quencher, side channel, partial curve]"}
{"smiles": "CCOC(=O)c1sc(-c2ccccc2)cc1NC(=O)Nc1ccccc1", "Potency": "inconclusive: 3.16 µM [quencher, side channel, full curve]"}
{"smiles": "CC1=NN(c2ccc(Cl)c(C(=O)O)c2)C(=O)C1", "Potency": "inactive"}
{"smiles": "CCc1nnc(NC(=O)c2ccc(S(=O)(=O)N(C)c3ccccc3)cc2)o1", "Potency": "inconclusive: 15.8 µM [quencher, side channel, partial curve]"}
{"smiles": "Cc1ccc(O)c(C2=Nc3ccccc3N=C(c3cccs3)C2)c1", "Potency": "inconclusive: 35.5 µM [inhibitor, single point]"}
{"smiles": "COc1cc(NC(=O)Nc2cccc3cccnc23)cc(OC)c1OC", "Potency": "inconclusive: 39.8 µM [quencher, side channel, single point]"}
{"smiles": "COc1ccc(NC(=O)COc2ccc(C)cc2)c([N+](=O)[O-])c1", "Potency": "inconclusive: 0.708 µM [quencher, side channel, full curve, poor fit]"}
{"smiles": "CC(=O)Oc1cccc(N2C(=O)C3C4C=CC(C4=C(C)C)C3C2=O)c1", "note": "(stereo unspecified)", "Potency": "inconclusive: 5.01 µM [inhibitor, single point]"}
{"smiles": "O=C(COC(=O)c1ccc(S(=O)(=O)N2CCOCC2)cc1)Nc1nc(-c2ccccc2)cs1", "Potency": "inconclusive: 39.8 µM [inhibitor, single point]"}
{"smiles": "CNC(=S)N(CCc1c(C)[nH]c2ccc(C)cc12)Cc1cccs1", "Potency": "inconclusive: 20 µM [quencher, partial curve]"}
{"smiles": "Cc1ccc(C(=O)/C=C/c2c[nH]c3ccccc23)cc1", "Potency": "inconclusive: 35.5 µM [quencher, side channel, single point]"}
{"smiles": "Cc1nn(Cc2c(Cl)cccc2Cl)c(C)c1NC(=O)c1cn(-c2ccccc2)nc1-c1ccccc1", "Potency": "inconclusive: 0.631 µM [inhibitor, full curve, poor fit]"}
{"smiles": "CCOCCn1c(CN(Cc2ccccc2)Cc2ccccc2)nc2c1c(=O)n(C)c(=O)n2C", "Potency": "inconclusive: 1.58 µM [fluorescent, side channel, full curve, poor fit]"}
{"smiles": "CCC(=O)N(Cc1ccc(C)cc1)Cc1cc2cc3c(cc2[nH]c1=O)OCO3", "Potency": "inconclusive: 25.1 µM [fluorescent, side channel, partial curve]"}
{"smiles": "O=C(CSCc1cccc(Cl)c1)N1CCN(Cc2ccc3c(c2)OCO3)CC1", "Potency": "inconclusive: 11.2 µM [fluorescent, side channel, partial curve]"}
{"smiles": "O=C1CSC(=S)N1/N=C/c1cc(Br)c(O)c(Br)c1", "Potency": "inconclusive: 7.08 µM [fluorescent, side channel, partial curve]"}
{"smiles": "CCOC(=O)N1C/C(=C\\c2ccccc2)C(=O)/C(=C/c2ccccc2)C1", "Potency": "inconclusive: 3.16 µM [fluorescent, side channel, partial curve]"}
